Assay results: the supplement of paper PMC11348887
Counter-ions that a name gives are not always drawn. This is one part of the list. No stated cut-off is given here; in the data, active = -2 or less and inactive = the rest. Many values rest on one well or one pass, so single values are uncertain.

These compounds were tested on hPSC-derived cortical neurons (WA09) (assay: nuclei number (viability) z-score; higher = more surviving cells). Details: 5 µM; treatment: days 7-14 after plating, readout day 21.
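Further: nuclei counted from DAPI counterstain by automated high-content image analysis, four fields per well at ×20 in 384-well plates, with sequential b-score then z-score normalization.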

Compound	nuclei number (z-score)
CN(C(=O)CN(CCO)CC(=O)N(C)C(C)(C)Cc1ccccc1)C(C)(C)Cc1ccccc1 [Oxethazaine]	inactive: -0.974
CN1CCN2c3ncccc3Cc3ccccc3C2C1 (configuration not stated) [Mirtazapine]	inactive: -0.19
CC[C@H](NC(=O)[C@H](C)NC)C(=O)N1C[C@@H](O)C[C@H]1Cc1c(-c2[nH]c3cc(F)ccc3c2C[C@@H]2C[C@H](O)CN2C(=O)[C@H](CC)NC(=O)[C@H](C)NC)[nH]c2cc(F)ccc12 [Birinapant]	inactive: 0.461
CC(C)N(CC[C@H](c1ccccc1)c1cc(CO)ccc1O)C(C)C	inactive: 0.968
NC(N)=NCCCC(N)C(=O)NCC(=O)NC(CC(=O)O)C(=O)O (stereo not drawn) [RGD (Arg-Gly-Asp) Peptides]	inactive: 0.883
CC(C)[C@H](N)C(=O)OCCOCn1cnc2c(=O)nc(N)[nH]c21 [Valaciclovir HCl]	inactive: 1.62
CCCCCCNC(=O)n1cc(F)c(=O)[nH]c1=O [Carmofur]	inactive: -0.133
CCC[C@@H]1C[C@@H](C(=O)N[C@@H]([C@H]2O[C@H](SC)[C@H](OP(=O)(O)O)[C@@H](O)[C@H]2O)[C@H](C)Cl)N(C)C1 [Clindamycin Phosphate]	inactive: -0.0938
CC(O)c1cc(C(=O)N[C@@H](C)Cn2ccc(-c3ccc(C#N)c(Cl)c3)n2)n[nH]1 (some centres not stated)	inactive: 1.17
COC(=O)C1=CO[C@@H](O)[C@@H]2C(CO)=CC[C@H]12 [Genipin]	inactive: 0.206
Cc1nc(C(=O)NCC(=O)O)c(O)c2ccc(Oc3ccccc3)cc12	inactive: 3.61
COc1cccc2c1C(=O)c1c(O)c3c(c(O)c1C2=O)C[C@@](O)(C(=O)CO)C[C@@H]3O[C@H]1C[C@H](N)[C@H](O[C@@H]2CCCCO2)[C@H](C)O1 [Pirarubicin]	active: -7.65
COC(=O)N[C@@H](C)CNc1nccc(-c2cn(C(C)C)nc2-c2cc(Cl)cc(NS(C)(=O)=O)c2F)n1	inactive: 1
CC[C@@H]1C(=O)N(C)c2cnc(Nc3ccc(C(=O)N[C@H]4CC[C@H](N5CCN(CC6CC6)CC5)CC4)cc3OC)nc2N1C(C)C [Volasertib (BI 6727)]	active: -4.53
CCc1cccc(CC)c1NC(=O)N1Cc2[nH]nc(NC(=O)c3ccc(N4CCN(C)CC4)cc3)c2C1	inactive: 1.1
CC#C[C@]1(O)CC[C@H]2[C@@H]3CCC4=CC(=O)CCC4=C3[C@@H](c3ccc(N(C)C)cc3)C[C@@]21C [Mifepristone]	active: -6.88
COc1ccc(Cl)cc1C(=O)NCCc1ccc(S(=O)(=O)NC(=O)NC2CCCCC2)cc1 [Glyburide]	inactive: 0.707
Nc1nc(=O)n([C@@H]2CS[C@H](CO)O2)cc1F [Emtricitabine]	inactive: -0.355
CCN(CC)CCOCCOC(=O)C1(c2ccccc2)CCCC1 [Pentoxyverine Citrate]	inactive: -0.367

Compound	nuclei number (z-score)
CC#CCn1c(N2CCC[C@@H](N)C2)nc2c1c(=O)n(Cc1nc(C)c3ccccc3n1)c(=O)n2C [Linagliptin]	inactive: 1.47
CCN(CC)C(=O)C1(c2ccccc2)CC1CN (configuration not stated) [Milnacipran HCl]	inactive: 0.34
Cc1cc(C(C)(C)C)cc(C)c1CC1=NCCN1 [Xylometazoline HCl]	inactive: -0.128
COc1cc(NC(=O)c2ccccn2)ccc1Cl	inactive: 1.2
c1ccc(Cn2c(-c3ccc(OC[C@H](C4CCNCC4)n4c(-c5ccccc5)nc5ccccc54)cc3)nc3ccccc32)cc1 [Deltarasin]	active: -5.6
COc1cc2nc(N3CCN(C(=O)C4COc5ccccc5O4)CC3)nc(N)c2cc1OC (configuration not stated) [Doxazosin Mesylate]	inactive: 2.07
N#C/C(=C(/N)Sc1ccc(N)cc1)c1ccccc1C(F)(F)F	inactive: 1.07
NC[C@@](O)(c1ccc(Cl)cc1)c1ccc(-c2cn[nH]c2)cc1	inactive: 3.4
O=c1c(O)c(-c2ccc(O)cc2)oc2cc(O)cc(O)c12 [Kaempferol]	inactive: -0.811
CNC(=O)c1ccc(N2C(=S)N(c3ccc(C#N)c(C(F)(F)F)c3)C(=O)C2(C)C)cc1F [Enzalutamide (MDV3100)]	inactive: 1.58
CCCc1ccc(OCC(=O)N(Cc2nc(-c3cccnc3)no2)C(C)C)cc1	inactive: 0.654
COc1cc(OC)c(NC(=O)Nc2cc(C)on2)cc1Cl	inactive: 0.198
CC(C)(C)c1cc(NC(=O)Nc2ccc(-c3cn4c(n3)sc3cc(OCCN5CCOCC5)ccc34)cc2)no1 [Quizartinib (AC220)]	active: -2.92
CC1(C)Cc2c(-c3ccccc3)c(-c3ccc(Cl)cc3)c(CC(=O)O)n2C1 [Licofelone]	inactive: 0.121
Nc1nc2c(cnn2CCc2ccccc2)c2nc(-c3ccco3)nn12	inactive: 0.804
Cc1c(N)c(=O)n(-c2ccccc2)n1C [4-Aminoantipyrine]	inactive: 0.795
O=C(/C=C/c1cccc(S(=O)(=O)Nc2ccccc2)c1)NO [Belinostat (PXD101)]	active: -4.07
NC[C@H]1O[C@H](O[C@H]2[C@H](O)[C@@H](O[C@H]3O[C@H](CO)[C@@H](O)[C@H](N)[C@H]3O)[C@H](N)C[C@@H]2N)[C@H](N)C[C@@H]1O [Tobramycin]	inactive: -0.675
